Among the data in the supplement of paper PMC8285479 are normalised cell viability values, retold here.

Structures are written as SMILES. Counter-ions that a name gives are not always drawn. ± gives the standard deviation of the averaged measurements. Over roughly 1,900 compounds, “normalised cell viability (NPI; 0 = phenylarsine oxide control, 1 = DMSO control)” has its median near 1; the lowest 2% begin near 0.039. This is one part of the list.

The assay has as its system NCI-H1944. As to the kind of experiment: normalised cell viability (NPI; 0 = phenylarsine oxide control, 1 = DMSO control) (fraction of DMSO control); NCI-H1944 is a non-small cell lung cancer line; higher = more viable cells (less compound toxicity). The note with it: 6 days.
Where [1] appears, read: glucocorticoid arm: hydrocortisone 2.75 uM pre-treated 2 days and continued, compound 1 µM.
The mark [2] stands for this setting: glucocorticoid arm: hydrocortisone 2.75 uM co-treatment, compound 1 µM.
Where [3] appears, read: glucocorticoid arm: hydrocortisone 2.75 uM co-treatment, compound 5 µM.
Setting [4] is: glucocorticoid arm: hydrocortisone 2.75 uM pre-treated 2 days and continued, compound 5 µM.
[5] abbreviates: glucocorticoid arm: vehicle, compound 1 µM.
Where [6] appears, read: glucocorticoid arm: vehicle, compound 5 µM.
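Further: CTB read-out in 384-well plates, mean of triplicate wells, normalised per plate against 1 µM phenylarsine oxide and 0.1% DMSO, compounds added 24 h after seeding.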

As to `N.N.[Cl][Pt][Cl]` [Cisplatin], the normalised cell viability under setting [1] amounted to 1.01.

As to `Oc1ccc2c3c1O[C@H]1c4[nH]c5c(c4C[C@@]4(O)[C@@H](C2)N(CC2CC2)CC[C@]314)C[C@@]1(O)[C@H]2Cc3ccc(O)c4c3[C@@]1(CCN2CC1CC1)[C@H]5O4` [nor-Binaltorphimine dihydrochloride], the normalised cell viability reads like this: under setting [2], 1 ± 0.011; under setting [3], 1.01 ± 0.01; under setting [1], 1.01 ± 0.01; under setting [4], 1.04 ± 0.08; under setting [5], 0.9997 ± 0.0093; under setting [6], 1 ± 0.018.

In the case of `C[N+](C)(C)CC#CCOC(=O)Nc1cccc(Cl)c1`, the normalised cell viability reads like this: under setting [2], 0.991 ± 0.021; under setting [3], 0.998 ± 0.013; under setting [1], 0.872 ± 0.21; under setting [4], 0.995 ± 0.022; under setting [5], 1 ± 0.017; under setting [6], 1.001 ± 0.0081.

As for `CN1C[C@@H](NS(=O)(=O)N(C)C)C[C@@H]2c3cccc4c3c(cn4C)C[C@H]21` [Mesulergine hydrochloride], the normalised cell viability by setting is: under setting [2], 0.997 ± 0.0027; under setting [3], 0.968 ± 0.02; under setting [1], 1 ± 0.015; under setting [4], 1.04 ± 0.076; under setting [5], 0.9727 ± 0.0068; under setting [6], 0.972 ± 0.0056.

As to `CC(=O)Oc1ccc(/C=C/c2cc(OC(C)=O)cc(OC(C)=O)c2)cc1` [Triacetylresveratrol], the normalised cell viability under setting [2] amounted to 1.002 ± 0.0094; the normalised cell viability under setting [3] amounted to 0.999 ± 0.019; the normalised cell viability under setting [1] came to 1 ± 0.011; the normalised cell viability under setting [4] is 1.01 ± 0.017; the normalised cell viability under setting [5] stood at 0.992 ± 0.014; the normalised cell viability under setting [6] came out at 0.998 ± 0.017.

For `Cc1ncc(CNC(=O)N(CCCl)N=O)c(N)n1` [Nimustine hydrochloride], the normalised cell viability under setting [2] was 1.017 ± 0.0058; the normalised cell viability under setting [3] stood at 1.02 ± 0.018; the normalised cell viability under setting [1] turned out to be 1.013 ± 0.0058; the normalised cell viability under setting [4] turned out to be 0.889 ± 0.24; the normalised cell viability under setting [5] was 0.9977 ± 0.0021; the normalised cell viability under setting [6] was 1.01 ± 0.012.

Consider `COc1ccc2[nH]cc(CCN)c2c1` [O-Methylserotonin hydrochloride], for which the normalised cell viability by setting is: under setting [2], 1.013 ± 0.0058; under setting [3], 1.03; under setting [1], 1.01 ± 0.014; under setting [4], 1.04 ± 0.055; under setting [5], 0.9987 ± 0.0015; under setting [6], 1.01 ± 0.018.

For `CO[C@H]1CC=C2CCN3CCC4=C(CC(=O)OC4)[C@]23C1` [Dihydro-beta-erythroidine hydrobromide], the normalised cell viability was determined as 0.9913 ± 0.0055 under setting [2]; 1 ± 0.016 under setting [3]; 0.9997 ± 0.0091 under setting [1]; 0.988 ± 0.019 under setting [4]; 0.9943 ± 0.0015 under setting [5]; 0.991 ± 0.011 under setting [6].

Take `OC[C@H]1O[C@@H](n2cnc3cc(Cl)c(Cl)cc32)[C@H](O)[C@@H]1O` [5,6-Dichlorobenzimidazole riboside]: the normalised cell viability reads like this: under setting [2], 1.007 ± 0.0058; under setting [3], 0.998 ± 0.013; under setting [1], 1.007 ± 0.0058; under setting [4], 1.03 ± 0.01; under setting [5], 0.988 ± 0.008; under setting [6], 0.991 ± 0.0053.

With `COc1cc(C=C(C#N)C#N)cc(O)c1O` [Tyrphostin AG 34], the normalised cell viability is, setting by setting: under setting [2], 1.02 ± 0.015; under setting [3], 1.02 ± 0.017; under setting [1], 0.896 ± 0.23; under setting [4], 1.02 ± 0.015; under setting [5], 1.03 ± 0.01; under setting [6], 1.023 ± 0.0058.

`C[N+]1(C)CCOC(O)(c2ccc(-c3ccc(C4(O)C[N+](C)(C)CCO4)cc3)cc2)C1` (stereo not given) [Hemicholinium-3]: the normalised cell viability runs as follows: under setting [2], 1.006 ± 0.0075; under setting [3], 1.017 ± 0.0058; under setting [1], 1.017 ± 0.0058; under setting [4], 1 ± 0.0095; under setting [5], 1.003 ± 0.0058; under setting [6], 1.

For `Nc1ccncc1` [4-Aminopyridine], the normalised cell viability stood at 0.9723 ± 0.0046 under setting [2]; 0.971 ± 0.0072 under setting [3]; 0.98 ± 0.006 under setting [1]; 0.981 ± 0.028 under setting [4]; 0.989 ± 0.013 under setting [5]; 0.99 ± 0.0036 under setting [6].

On to `COc1ccc(-n2nc(C(F)(F)F)cc2-c2ccc(Cl)cc2)cc1`, for which the normalised cell viability runs as follows: under setting [2], 0.996 ± 0.0069; under setting [3], 0.999 ± 0.036; under setting [1], 0.955 ± 0.1; under setting [4], 0.997 ± 0.025; under setting [5], 1.017 ± 0.0058; under setting [6], 1.013 ± 0.0058.

Take `CCS(=O)(=O)Nc1cccc(C(=C2CCCCC2)c2cnc[nH]2)c1`: the normalised cell viability amounted to 1.006 ± 0.0063 under setting [2]; 1.04 ± 0.015 under setting [3]; 1.01 ± 0.011 under setting [1]; 1.04 ± 0.028 under setting [4]; 0.985 ± 0.013 under setting [5]; 0.9933 ± 0.0061 under setting [6].

Regarding `NCC(O)c1cc(O)c(O)cc1F` (stereo not given) [6-Fluoronorepinephrine hydrochloride], the normalised cell viability was 1.03 ± 0.038 under setting [2]; 1 ± 0.024 under setting [3]; 0.9913 ± 0.009 under setting [1]; 1.01 ± 0.025 under setting [4]; 1.003 ± 0.0058 under setting [5]; 1.003 ± 0.0058 under setting [6].

For `O=C(O[C@H]1C[C@H]2CC[C@@H](C1)[N+]21CCCC1)C(O)(c1ccccc1)c1ccccc1` [Trospium chloride], the normalised cell viability amounted to 1.01 ± 0.013 under setting [2]; 1 ± 0.035 under setting [3]; 1.003 ± 0.0061 under setting [1]; 1 ± 0.02 under setting [4]; 1.006 ± 0.0063 under setting [5]; 1.002 ± 0.007 under setting [6].

With `C=CCN1CCc2cccc3c2[C@H]1Cc1ccc(O)c(O)c1-3` [R(-)-N-Allylnorapomorphine hydrobromide], the normalised cell viability reads like this: under setting [2], 0.992 ± 0.0052; under setting [3], 0.949 ± 0.0089; under setting [1], 0.988 ± 0.011; under setting [4], 0.968 ± 0.02; under setting [5], 0.9917 ± 0.0042; under setting [6], 0.9757 ± 0.0015.

Turning to `Cc1[nH]c2ccc(O)cc2c1CCN` [2-Methyl-5-hydroxytryptamine maleate], the normalised cell viability was determined as 1.002 ± 0.0072 under setting [2]; 1.01 ± 0.024 under setting [3]; 1 ± 0.011 under setting [1]; 1.06 ± 0.11 under setting [4]; 0.986 ± 0.002 under setting [5]; 0.993 ± 0.015 under setting [6].

Take `CCCCCCCCCCCCCC(=O)O[C@@H]1[C@@H](C)[C@@]2(O)[C@@H](C=C(CO)C[C@]3(O)C(=O)C(C)=C[C@@H]23)[C@@H]2C(C)(C)[C@]12OC(C)=O` [Phorbol 12-myristate 13-acetate]: the normalised cell viability is, setting by setting: under setting [2], 1.06 ± 0.015; under setting [3], 1.13 ± 0.029; under setting [1], 1.08 ± 0.045; under setting [4], 1.16 ± 0.021; under setting [5], 1.03 ± 0.01; under setting [6], 1.01 ± 0.019.

For `CC(C)[C@@]1(NC(=O)[C@@H]2C[C@@H]3c4cccc5[nH]cc(c45)C[C@H]3N(C)C2)O[C@@]2(O)[C@@H]3CCCN3C(=O)[C@H](Cc3ccccc3)N2C1=O` [Dihydroergocristine methanesulfonate], the normalised cell viability is, setting by setting: under setting [2], 0.9953 ± 0.0081; under setting [3], 0.978 ± 0.019; under setting [1], 0.9933 ± 0.0059; under setting [4], 1.03 ± 0.011; under setting [5], 0.9913 ± 0.0076; under setting [6], 0.9997 ± 0.0093.

As to `CN1CCC(c2c[nH]c3ccc(O)cc23)CC1`, the normalised cell viability under setting [5] amounted to 1.01.

Take `CC1Cc2cc3c(cc2C(c2ccc(N)cc2)=NN1)OCO3` (stereo not given): the normalised cell viability under setting [2] was found to be 1.01 ± 0.01; the normalised cell viability under setting [3] turned out to be 1.02 ± 0.021; the normalised cell viability under setting [1] stood at 1.01; the normalised cell viability under setting [4] turned out to be 1.01 ± 0.037; the normalised cell viability under setting [5] is 0.9943 ± 0.0035; the normalised cell viability under setting [6] was 0.9943 ± 0.006.

Regarding `NC(=O)c1ccc(OCC(O)CN2CC=C(c3ccc(F)cc3)CC2)cc1` (stereo not given), the normalised cell viability under setting [2] amounted to 0.979 ± 0.011; the normalised cell viability under setting [3] was found to be 0.952 ± 0.011; the normalised cell viability under setting [1] worked out at 0.999 ± 0.011; the normalised cell viability under setting [4] worked out at 0.955 ± 0.022; the normalised cell viability under setting [5] was found to be 0.986 ± 0.0027; the normalised cell viability under setting [6] is 0.984 ± 0.0072.

With `C[N+](C)(C)CC#CCN1CCCC1=O` [Oxotremorine methiodide], the normalised cell viability reads like this: under setting [2], 1.033 ± 0.0058; under setting [3], 1.03 ± 0.021; under setting [1], 1.017 ± 0.0058; under setting [4], 1.04 ± 0.056; under setting [5], 1.003 ± 0.0058; under setting [6], 1.02 ± 0.015.

As to `COc1ccc(CNC(=O)/C=C/c2ccc3[nH]cc(CCN(C)C)c3c2)cc1`, the normalised cell viability worked out at 1.003 ± 0.0061 under setting [2]; 1.02 ± 0.011 under setting [3]; 1.003 ± 0.0058 under setting [1]; 1.01 ± 0.014 under setting [4]; 0.9943 ± 0.0049 under setting [5]; 0.996 ± 0.0036 under setting [6].
